Hit rate of the full screen: of about 150,000 compounds, about 540 (0.36%) showed an effect of 50% or more. The list shows a part of the results.

Consider 55 molecules from ChEMBL document CHEMBL4888484, “Replenishing the malaria drug discovery pipeline: Screening and hit evaluation of the MMV Hit Generation Library 1 (HGL1) against asexual blood stage Plasmodium falciparum ,using a nano luciferase reporter read-out” (2022).

In this test the test system is Plasmodium falciparum. Nature of the test: Primary screen in NF54 nanoGlo assay, in single point, at 2uM, 72h; a lower Z score goes with more inhibition. It is filed as functional, Erythrocyte. The following applies: timepoint 72 hour.
Consider `Cc1ccc(C(=O)N2CCN3[C@@H](C2)CN(C(=O)c2ccc(Cl)cc2)C[C@@]3(C)CO)cc1`, for which the % Inhibition (as a rule, the drop in the measured response relative to a control, in per cent) was -1% and the Z score is recorded as 0.18.
On to `COc1ccc2ncn(C[C@@H](CO)C(C)C)c(=O)c2c1`, for which the “% Inhibition” value is 0% and the Z score is 0.01.
Turning to `Cc1cnc(CN2CCNC(=O)[C@@H]2CC(C)C)s1`, the “% Inhibition” value is on record as 3% and the Z score is given as -0.49.
For the molecule `C#CC[C@H](NC(=O)c1ccc(C)s1)C(N)=O`, the “% Inhibition” value is reported as -2% and the Z score was found to be 0.35.
`O=C(Cn1cncn1)N1CCC[C@H](Cc2nc(-c3ccsc3)no2)C1`: the “% Inhibition” value worked out at 27% and the Z score was -3.52.
Turning to `O=C1O[C@H](C(=O)N2CCc3ccccc32)Cc2ccccc21`, the “% Inhibition” value is listed as -10% and the Z score is recorded as 1.05.
With `O=C(Nc1ccc2c(c1)cc(C(=O)Nc1ccc(C(F)(F)F)cc1)n2Cc1cccc(F)c1)c1ccccc1Cl`, the “% Inhibition” value was 30% and the Z score is -4.07.
Turning to `CCCCc1ccnc(NS(=O)(=O)c2sc(C)nc2C)n1`, the “% Inhibition” value was -6% and the Z score amounted to 0.74.
For `C[C@@H]1Oc2ccc(NC(=O)CNC(=O)c3cccs3)cc2NC1=O`, the “% Inhibition” value was -14% and the Z score worked out at 2.71.
As for `CCOC(=O)Cc1csc(NC(=O)c2cc(Cl)c3c(c2)OCCCO3)n1`, the “% Inhibition” value stood at 0% and the Z score was 0.09.
As to `Cc1cc(N)n(CC(=O)NCCC2=CC[C@H]3C[C@@H]2C3(C)C)n1`, the “% Inhibition” value amounted to 3% and the Z score is on record as -0.53.
On to `CN(Cc1ccccc1)C(=O)CNC(=O)[C@@]1(C)CC1(Cl)Cl`, for which the “% Inhibition” value stood at 10% and the Z score was -1.82.
As to `CC1CC(=O)CCC1C(=O)Nc1ccc2[nH]ccc2c1` (stereo not given), the “% Inhibition” value turned out to be 11% and the Z score is on record as -1.4.
In the case of `COCCn1c(-c2nc(C(=O)Nc3nccs3)cs2)cc2ccccc21`, the “% Inhibition” value stood at 15% and the Z score is -2.04.
In the same order, the values of `N#Cc1ccncc1NCC1(C(N)=O)CCOCC1` are 16% and -1.76.
For `O=C(CN1CCC(O)CC1)N[C@H]1CCCc2ccccc21` the same measures were -7% and 1.12.
For `Cc1nc2ccc(Cl)cn2c1CN1CCC[C@](C)(C#N)C1` the same measures were -1% and 0.16.
Regarding `Nc1c(S(=O)(=O)c2ccc(Cl)cc2)c2nc3ccccc3nc2n1Cc1ccc(F)cc1`, the “% Inhibition” value is given as -2% and the Z score is 0.21.
In the case of `Cc1cnn(C)c1S(=O)(=O)N1CCC=C(c2cn(C(C)C)nn2)CC1`, the “% Inhibition” value was -3% and the Z score is reported as 0.41.
`CCNC(=O)CONC(=O)CCCc1ccccc1`: the “% Inhibition” value is recorded as -5% and the Z score was found to be 0.6.
For the molecule `Cc1cc(C(=O)NCCc2cccs2)[nH]n1`, the “% Inhibition” value is on record as -5% and the Z score is recorded as 0.95.
In the case of `CN1CCC[C@@H]1CCNC(=O)c1cccc(-c2nc(C(C)(C)C)n[nH]2)c1`, the “% Inhibition” value is -11% and the Z score is on record as 1.79.
As to `Cc1cc(C(=O)NCC(=O)NC(C)(C)C)no1`, the “% Inhibition” value stood at 37% and the Z score is -5.05.
Take `CN(C1CCOCC1)S(=O)(=O)N1CCC(N2CCc3cc(F)ccc32)CC1`: the “% Inhibition” value was -18% and the Z score turned out to be 2.31.
Take `CC(C)N(C[C@H]1CCC(=O)N1)C(=O)c1cn(C)c2ccccc12`: the “% Inhibition” value is listed as -3% and the Z score was determined as 0.43.
For the molecule `CCCS(=O)(=O)N(C)[C@@H](C)c1ccccc1O`, the “% Inhibition” value was -7% and the Z score is 0.76.
For `C[C@@H](CCc1ccccc1)NC(=O)c1cccs1` the same measures were 6% and -0.9.
As to `Cc1nn(C)c(S(=O)(=O)NCC(C)(C)CCCO)c1C(F)F`, the “% Inhibition” value worked out at 0% and the Z score is on record as 0.04.
As for `CCCc1nnc(N2C[C@H]3CC[C@@H](C2)[C@H]3OC)o1`, the “% Inhibition” value is given as -1% and the Z score was found to be 0.24.
For `COc1ccc2c(c1)CCc1c(C(=O)Nc3cc(Cl)ccc3OC)n[nH]c1-2` the same measures were 1% and -0.19.
With `CCOC(=O)c1c(C)[nH]c(CCC(=O)NCCc2c(C)noc2C)c1C`, the “% Inhibition” value stood at 0% and the Z score is listed as -0.05.
On to `CCCCn1nc(-c2ccc(C)o2)nc1[C@H]1CCOC1`, for which the “% Inhibition” value is -9% and the Z score is listed as 1.75.
Consider `CCN1CC2(CCN(C(=O)CCCOc3ccccc3)CC2)CC1=O`, for which the “% Inhibition” value is reported as -17% and the Z score came out at 3.24.
Take `FC(F)(F)c1cccc(C2(c3nnc(-c4ccc5c(c4)OCCO5)o3)CCOCC2)c1`: the “% Inhibition” value was determined as 0% and the Z score was -0.04.
For the molecule `CC(C)n1nnc2ccc(-c3noc(-c4ccccc4)n3)cc21`, the “% Inhibition” value is listed as -20% and the Z score is 2.19.
`Cn1nc(CO)c2c1CCN(Cc1cn3ccccc3n1)C2`: the “% Inhibition” value is listed as -4% and the Z score stood at 0.56.
For `c1csc(NCCCOC2CCCC2)n1`, the “% Inhibition” value is listed as -10% and the Z score is on record as 1.6.
In the same order, the values of `O=C(Cc1cccs1)NC[C@H](O)c1ccc2c(c1)CCO2` are -27% and 3.45.
In the same order, the values of `FCCn1cc(-c2noc(C3CCN(c4cnccn4)CC3)n2)cn1` are -8% and 0.86.
As to `CC(C)(C)c1cc(NC(=O)c2ccc(Br)o2)n([C@H]2CCS(=O)(=O)C2)n1`, the “% Inhibition” value is given as -11% and the Z score is on record as 0.97.
For the molecule `CC(=O)N1CCN(CC(=O)Nc2c(C#N)c(C)c(C)n2C2CCCCC2)CC1`, the “% Inhibition” value is reported as -3% and the Z score was determined as 0.25.
For `Cc1ccc(O)c(S(=O)(=O)N2c3ccccc3C[C@H]2C(N)=O)c1` the same measures were -9% and 1.19.
On to `CCc1ccc(CN(C)CCn2nc(C)cc2C)nc1`, for which the “% Inhibition” value is on record as -14% and the Z score is listed as 1.93.
As to `O=C(COc1ccc2c(c1)OCO2)Nc1nc(-c2ccccc2)cs1`, the “% Inhibition” value is -19% and the Z score is 3.6.
Regarding `CC[C@@H](C(=O)Nc1nccs1)N1CCC(CNC(=O)C2CCC2)CC1`, the “% Inhibition” value was -2% and the Z score is 0.38.
For `Nc1cc2c(cc1-n1cnnn1)OCCO2`, the “% Inhibition” value is recorded as -2% and the Z score was determined as 0.36.
As to `N#Cc1cccc(C(=O)Nc2ccc(N3CCCN(Cc4ccc(F)c(F)c4)C3=O)cc2)c1`, the “% Inhibition” value is -5% and the Z score amounted to 0.51.
With `COc1ccc(NC(=O)c2c(F)c(F)c3c(c2F)N(Cc2ccccc2)CCS3(=O)=O)cc1`, the “% Inhibition” value is given as -6% and the Z score amounted to 0.85.
For `CC(C)(C)[C@@H](O)CNc1nnc(C(F)(F)F)s1` the same measures were -3% and 0.52.
In the same order, the values of `CCOCc1ccccc1NC(=O)c1nc(-c2cccc(Cl)c2)[nH]c1C` are 4% and -0.59.
In the case of `NC(=O)N(Cc1cccc(Br)c1)CC1(O)CCCCC1`, the “% Inhibition” value worked out at 6% and the Z score is -0.76.
For `CC(C)Cc1nc(CC(F)(F)F)n(-c2cccc3cccnc23)n1` the same measures were 15% and -1.93.
In the case of `CNC(=O)CNC(=O)c1cccc(NC(=O)[C@]2(C)CCCO2)c1`, the “% Inhibition” value is given as -2% and the Z score is reported as 0.16.
In the case of `O=c1c2ccccc2ncn1C[C@@H](O)CC1CCCC1`, the “% Inhibition” value is listed as -7% and the Z score is reported as 0.85.
For `CC(C)N(CCC(N)=O)S(=O)(=O)NCc1ccccc1`, the “% Inhibition” value is -13% and the Z score is given as 2.1.
